# Test results from a collection of fitness landscapes (doi:10.1016/j.celrep.2020.107928).
# In all, about 81,000 sequences were measured (“one-hybrid fitness for binding NBS DNA”: median about -0.1, highest 2% from about 0.36 on). The list shows a part of the results.
# B1: Caulobacter ParB omega fusion; a variant is named by its letters at X, in order, B8GW30 (parent)
# chain: MESVVVGEPGMSEGRRGLGRGLSALLGEVDAAPAQAPGEQLGGSREAPIEILQRNPDQPRRTFREEDLEDLSNSIREKGVLQPILVRPSPDTAGEYQIVAGERAWRAAQRAGLKTVPIMVRELDDLAVLEIGIIENVQRADLNVLEEALSYKVLMEKFERTQENIAQTIGKSXSHVANXMRLLXLPDEVQSYLVSGELTAXHARAIAAAADPVALAKQIIEGGLSVRETEALARKAPNLSAGKSKGGRPPRVKDTDTQALESDLSSVLGLDVSIDHRGSTGTLTITYATLEQLDDLCNRLTRGI
# Variants of: B1
# Test: one-hybrid fitness for binding NBS DNA (the Noc-binding site; scaled: cognate 1, non-cognate 0); higher = stronger binding
# Conditions: with NBS DNA site
# Summary of the method: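 Selection: bacterial one-hybrid in E. coli USO, HIS3 reporter with the site 19 bp from the promoter, 48 hours at 37°C on M9-minus-histidine plus 0.1 mM IPTG and 5 mM 3-AT. Libraries were Caulobacter ParB with four randomised specificity codons, sequenced on Illumina before and after selection. Fitness is the rescaled log change in variant-to-wild-type read ratio, anchored to the cognate and non-cognate sites.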
row,Variant,one-hybrid fitness for binding NBS DNA
1,QLTS,0.307
2,TDVV,≤ 0.2
3,ALRH,≤ 0.2
4,LWRR,≤ 0.2
5,LIHM,≤ 0.2
6,AHAP,≤ 0.2
7,HEQR,≤ 0.2
8,PKPQ,≤ 0.2
9,RATR,0.43
10,TTHV,≤ 0.2
11,VSPW,≤ 0.2
12,TDIF,≤ 0.2
13,DQYT,≤ 0.2
14,IGGI,≤ 0.2
15,YAHT,≤ 0.2
16,RDFI,≤ 0.2
17,PRRR,0.286
18,MSSV,≤ 0.2
19,FDWS,≤ 0.2
20,QRTY,0.519
21,PYYI,≤ 0.2
22,RVNA,0.261
23,ARCN,≤ 0.2
24,VIKS,≤ 0.2

row,Variant,one-hybrid fitness for binding NBS DNA
1,LVCF,≤ 0.2
2,GLYC,≤ 0.2
3,VISI,≤ 0.2
4,MTMR,≤ 0.2
5,DVSF,≤ 0.2
6,PLPY,≤ 0.2
7,GPQS,≤ 0.2
8,KVTT,≤ 0.2
9,GCMG,≤ 0.2
10,NISR,≤ 0.2
11,ISSC,≤ 0.2
12,CYMC,≤ 0.2
13,KNRD,≤ 0.2
14,FWGS,≤ 0.2
15,RHQS,0.455
16,QMFR,0.431
17,VADL,≤ 0.2
18,FCIS,≤ 0.2
19,VGQL,≤ 0.2
20,RIEN,≤ 0.2
21,YWPS,≤ 0.2
22,HRQA,≤ 0.2
23,TRHR,0.409
24,RCPI,≤ 0.2

row,Variant,one-hybrid fitness for binding NBS DNA
1,TLVQ,≤ 0.2
2,AQPG,≤ 0.2
3,IITT,≤ 0.2
4,IVFS,≤ 0.2
5,SDFY,≤ 0.2
6,EKDT,≤ 0.2
7,PNLC,≤ 0.2
8,QVVQ,0.234
9,CWCS,≤ 0.2
10,SKFR,≤ 0.2
11,FSRD,≤ 0.2
12,VSCC,≤ 0.2
13,NFLG,≤ 0.2
14,KAKG,≤ 0.2
15,DTFG,≤ 0.2
16,DGRL,≤ 0.2
17,PHCT,≤ 0.2
18,LFAC,≤ 0.2
19,TVLY,≤ 0.2
20,LLMQ,≤ 0.2
21,QTEI,≤ 0.2
22,SFGH,≤ 0.2
23,CGTS,≤ 0.2
24,TNHL,≤ 0.2

row,Variant,one-hybrid fitness for binding NBS DNA
1,FQYT,≤ 0.2
2,RQEA,≤ 0.2
3,HQAR,≤ 0.2
4,DPQC,≤ 0.2
5,KRPG,≤ 0.2
6,IASH,≤ 0.2
7,PVCQ,≤ 0.2
8,GQYT,≤ 0.2
9,SKTR,≤ 0.2
10,TQLY,≤ 0.2
11,GRVW,≤ 0.2
12,LGVT,≤ 0.2
13,TPWW,≤ 0.2
14,SNKN,≤ 0.2
15,YQTT,≤ 0.2
16,PAVS,≤ 0.2
17,VNSE,≤ 0.2
18,NTHR,≤ 0.2
19,TIDR,≤ 0.2
20,FLFG,≤ 0.2
21,NRWR,≤ 0.2
22,RSWN,≤ 0.2
23,ALNG,≤ 0.2
24,SIAG,≤ 0.2

row,Variant,one-hybrid fitness for binding NBS DNA
1,LMLT,≤ 0.2
2,YGAA,≤ 0.2
3,SHPA,≤ 0.2
4,SFQY,≤ 0.2
5,SRTN,≤ 0.2
6,SQLG,≤ 0.2
7,PHLM,≤ 0.2
8,WTET,≤ 0.2
9,TLYF,≤ 0.2
10,QFHV,≤ 0.2
11,KKYF,≤ 0.2
12,QPSC,≤ 0.2
13,RLKF,≤ 0.2
14,GKNS,≤ 0.2
15,GMTI,≤ 0.2
16,RKQA,0.291
17,AGGE,≤ 0.2
18,HRTQ,≤ 0.2
19,QSGK,≤ 0.2
20,CHWR,≤ 0.2
21,VQYA,≤ 0.2
22,QQGS,0.443
23,DVWG,≤ 0.2
24,LGVA,≤ 0.2

row,Variant,one-hybrid fitness for binding NBS DNA
1,RISW,≤ 0.2
2,SSPH,≤ 0.2
3,GPRL,≤ 0.2
4,NLCF,≤ 0.2
5,VRMR,0.218
6,DHTV,≤ 0.2
7,THPI,≤ 0.2
8,FYMA,≤ 0.2
9,GKKY,≤ 0.2
10,IYMR,≤ 0.2
11,ARQG,≤ 0.2
12,GNNS,≤ 0.2
13,TCQG,≤ 0.2
14,HRGS,≤ 0.2
15,IAAS,≤ 0.2
16,SAPR,≤ 0.2
17,NHLC,≤ 0.2
18,SDSW,≤ 0.2
19,EPRL,≤ 0.2
20,DMTL,≤ 0.2
21,PKWF,≤ 0.2
22,NVLG,≤ 0.2
23,PNNN,≤ 0.2
24,TSEP,≤ 0.2

row,Variant,one-hybrid fitness for binding NBS DNA
1,RVRC,0.32
2,LNPI,≤ 0.2
3,SNLR,≤ 0.2
4,GAPS,≤ 0.2
5,VTRC,≤ 0.2
6,KREC,≤ 0.2
7,SGSM,≤ 0.2
8,YGAE,≤ 0.2
9,DPTQ,≤ 0.2
10,RGHV,≤ 0.2
11,WREV,≤ 0.2
12,CQEC,≤ 0.2
13,DWRG,≤ 0.2
14,VFEC,≤ 0.2
15,KKVC,≤ 0.2
16,SGQC,≤ 0.2
17,EAMS,≤ 0.2
18,CLYM,≤ 0.2
19,LMWT,≤ 0.2
20,RHPL,≤ 0.2
21,REFP,≤ 0.2
22,LCNW,≤ 0.2
23,EPHL,≤ 0.2
24,CLVR,≤ 0.2

row,Variant,one-hybrid fitness for binding NBS DNA
1,VPLF,≤ 0.2
2,YPLN,≤ 0.2
3,ETSR,≤ 0.2
4,PPEI,≤ 0.2
5,TSIR,≤ 0.2
6,WCSS,≤ 0.2
7,WAKA,≤ 0.2
8,KRQA,0.349
9,DGGR,≤ 0.2
10,QGPR,≤ 0.2
11,DPHG,≤ 0.2
12,WYIG,≤ 0.2
13,PLCS,≤ 0.2
14,KSLD,≤ 0.2
15,GDAG,≤ 0.2
16,LTDC,≤ 0.2
17,RCVI,≤ 0.2
18,DSFM,≤ 0.2
19,RHNI,≤ 0.2
20,WSFA,≤ 0.2
21,DDNL,≤ 0.2
22,VMSH,≤ 0.2
23,HAEV,≤ 0.2
24,RQGK,≤ 0.2

row,Variant,one-hybrid fitness for binding NBS DNA
1,MLAV,≤ 0.2
2,QVCA,≤ 0.2
3,GWTS,≤ 0.2
4,DCHF,≤ 0.2
5,VPTN,≤ 0.2
6,TMHV,≤ 0.2
7,TSYS,≤ 0.2
8,RYKI,≤ 0.2
9,AEGV,≤ 0.2
10,MNCG,≤ 0.2
11,HSYS,≤ 0.2
12,RSEC,≤ 0.2
13,TQNL,≤ 0.2
14,ESVC,≤ 0.2
15,DEKH,≤ 0.2
16,PCLG,≤ 0.2
17,SMPS,≤ 0.2
18,AFKA,≤ 0.2
19,NRNW,≤ 0.2
20,DSRS,≤ 0.2
21,AVAA,≤ 0.2
22,HELI,≤ 0.2
23,MAVV,≤ 0.2
24,VNAV,≤ 0.2

row,Variant,one-hybrid fitness for binding NBS DNA
1,FCPR,≤ 0.2
2,PNEF,≤ 0.2
3,ACAG,≤ 0.2
4,EHSF,≤ 0.2
5,ERCI,≤ 0.2
6,SDMG,≤ 0.2
7,GLKG,≤ 0.2
8,TSGP,≤ 0.2
9,QGPM,≤ 0.2
10,MPTS,≤ 0.2
11,HRDA,≤ 0.2
12,RLVK,≤ 0.2
13,YTYL,≤ 0.2
14,HFVM,≤ 0.2
15,DCRL,0.405
16,HCAL,≤ 0.2
17,MPNC,≤ 0.2
18,NNSW,≤ 0.2
19,TKPY,≤ 0.2
20,GFKI,≤ 0.2
21,HDIS,≤ 0.2
22,NLYT,≤ 0.2
23,KRNA,0.384
24,RIIE,≤ 0.2

row,Variant,one-hybrid fitness for binding NBS DNA
1,SSNR,≤ 0.2
2,NPLT,≤ 0.2
3,SMAM,≤ 0.2
4,AGNR,≤ 0.2
5,IKNV,≤ 0.2
6,GQNY,≤ 0.2
7,QSRA,0.516
8,STRT,≤ 0.2
9,FIWL,≤ 0.2
10,KAIS,≤ 0.2
11,ARPN,≤ 0.2
12,QLQC,≤ 0.2
13,WLSW,≤ 0.2
14,SPYW,≤ 0.2
15,QWIR,0.209
16,KQAM,≤ 0.2
17,HIAT,≤ 0.2
18,TGAH,≤ 0.2
19,DADS,≤ 0.2
20,RVHG,≤ 0.2
21,IRKA,0.256
22,TSIS,≤ 0.2
23,AVTP,≤ 0.2
24,CYDC,≤ 0.2

row,Variant,one-hybrid fitness for binding NBS DNA
1,NKNT,≤ 0.2
2,VITI,≤ 0.2
3,QRMN,0.295
4,NNCR,≤ 0.2
5,RMYC,≤ 0.2
6,SKVM,≤ 0.2
7,LSPT,≤ 0.2
8,GSLA,≤ 0.2
9,RATY,≤ 0.2
10,NPAS,≤ 0.2
11,GPPV,≤ 0.2
12,TQYV,≤ 0.2
13,NDDV,≤ 0.2
14,VKNC,≤ 0.2
15,SRQR,≤ 0.2
16,EDLL,≤ 0.2
17,RPNR,≤ 0.2
18,PDVR,≤ 0.2
19,VINR,≤ 0.2
20,QRMG,0.329
21,DRLE,≤ 0.2
22,SLSS,≤ 0.2
23,EAKF,≤ 0.2
24,QASL,≤ 0.2

row,Variant,one-hybrid fitness for binding NBS DNA
1,MPTC,≤ 0.2
2,RQVT,0.216
3,QKSQ,≤ 0.2
4,NRDT,≤ 0.2
5,PVVV,≤ 0.2
6,MCRS,≤ 0.2
7,FVMG,≤ 0.2
8,RSLW,≤ 0.2
9,RFGT,≤ 0.2
10,LVGC,≤ 0.2
11,VNSK,≤ 0.2
12,PSKY,≤ 0.2
13,NNGR,≤ 0.2
14,TTHT,≤ 0.2
15,ATPA,≤ 0.2
16,KPNG,≤ 0.2
17,RSGQ,≤ 0.2
18,DDSR,≤ 0.2
